# Measured values as given in PubChem BioAssay (NCATS).
# Several values for one entry are separate records, joined by “and”; a condition that tells them apart may be missing. Equal entries are not always repeated. This list was built around the results that the source calls inconclusive (neither active nor inactive); the mix of calls is not that of the screen. Potencies beside an inconclusive call are fits to weak or partial responses and may not hold up. Activity calls are given as the source filed them. The call rests on the fitted dose curve; in most records, active means well fitted inhibition curve with a large enough effect; inconclusive means small, poorly fitted or top-dose-only effect; inactive means flat fitted curve, though single readings scatter.
# System: MKL-2
# Assay: qHTS assay to identify novel small-molecules to repurpose for Merkel cell carcinoma treatment (AID 1296009); further: nearly all actives have a fitted effect of over 60% in size
# Details: MCC and control cell lines, CellTiter-Glo viability, 72 h; series mostly up to 46 µM; activity change, negative = cytotoxicity: at the top concentration
# In short: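 CellTiter-Glo luminescence after 72 hr compound exposure at 37 degree celsius gave cell viability. Libraries NPC and MIPE were run as 8- and 11-point dose responses; RLUs normalized to DMSO (negative) and no-cell (cytotoxicity) controls.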
# On the % scale 0 is the no-effect control and ±100 the full control effect; potency means the concentration at half of the fitted maximal effect; tags describe the fitted curve by direction and shape.
SMILES,"activity change, negative = cytotoxicity",Potency
Cc1nc(NC(=O)N2CCC[C@@H]2C(N)=O)sc1-c1csc(C(C)(C)C)n1,inactive: -11.1%,
CCN1CCN(CC(=O)Nc2ccc(-c3cccc4c(=O)cc(N5CCOCC5)oc34)c3sc4ccccc4c23)CC1,,"inconclusive: 0.935 µM [inhibitor, full curve]"
CN(C)c1ccc(C(=C2C=CC(=[N+](C)C)C=C2)c2ccc(N(C)C)cc2)cc1,,active: 94.4 nM and active: 11.8 nM
Nc1[nH]nc2nnc(-c3c(-c4ccccc4)nn4ccccc34)cc12,,"inconclusive: 0.662 µM [inhibitor, full curve]"
O=[N+]([O-])c1ccc(O)c2ncccc12,,active: 2.66 µM
O=c1c(-c2ccccc2)c1-c1ccccc1,,active: 13.3 µM
C#C[C@]1(O)CC[C@H]2[C@@H]3[C@H](C)CC4=C(CCC(=O)C4)[C@H]3CC[C@@]21C,,"inconclusive: 16.8 µM [inhibitor, partial curve, poor fit]"
CCOC(=O)C1=C(C)NC2=C(C(=O)CC(C)(C)C2)C1c1ccc(-c2ccccc2)cc1 (centres undefined),,active: 2.35 µM
CC[C@@H]1C(=O)N(C)c2cnc(Nc3ccc(C(=O)NC4CCN(C)CC4)cc3OC)nc2N1C1CCCC1,,active: 3.32 µM
